# Assay results taken from PubChem BioAssay AID686978 (National Center for Advancing Translational Sciences (NCATS), 2013).
# Several values for one entry are separate records, joined by “and”; a condition that tells them apart may be missing. Equal values may be shown once. The whole screen tested about 420,000 compounds, of which about 64,000 (15%) were called active. The shares of active, inactive and inconclusive entries below differ from those in the screen. The call rests on the fitted dose curve; in most records, active means well fitted inhibition curve with a large enough effect; inconclusive means small, poorly fitted or top-dose-only effect; inactive means flat fitted curve, though single readings scatter. A potency beside an inconclusive call is a rough fit, not a confirmed value.
# Test: qHTS for Inhibitors of human tyrosyl-DNA phosphodiesterase 1 (TDP1): qHTS in cells in absence of CPT; further: nearly all actives have a fitted effect of over 55% in size
# Settings: DT40 Tdp1-/- hTDP1 cells, no CPT, ATP luminescence, 48 h; activity change, negative = growth inhibition: at 46.2 µM (top of the series)
# Outline: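 Chicken DT40 Tdp1-/- cells stably complemented with human TDP1 were seeded at 400 cells/well with DMSO in place of 20 nM camptothecin. After compound pinning, cells grew at least 48 hr at 37 °C; viability read by CellTiter-Glo luminescence.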
# On the % scale 0 is the no-effect control and ±100 the full control effect; potency means the concentration at half of the fitted maximal effect; tags describe the fitted curve by direction and shape.
Compound,Potency,"activity change, negative = growth inhibition"
COc1cc(C(c2c(NC(=O)c3ccco3)sc(C)c2C)N2CCOCC2)cc(OC)c1OC (centres undefined),active: 29.1 µM,–
CN1CCN(C(=O)CCN2C(=O)/C(=C\c3ccc(F)cc3)SC2=S)CC1,active: 14.6 µM,–
CC(C)OCCCn1c(=O)c2ccccc2n2c(-c3ccc(F)c(F)c3)nnc12,–,inconclusive: -32.2% [inhibitor]
Cc1ccc(S(=O)(=O)c2nnn3c2nc(NCc2ccc(F)cc2)c2sccc23)cc1C,"inconclusive: 18.4 µM [inhibitor, single point]",–
CCNC(=S)NNC(=O)c1ccccn1,"inconclusive: 25.9 µM [inhibitor, single point]",–
Cc1ncc2c(c1CNS(=O)(=O)N(C)C)CCN(C(=O)c1ccc(-c3ccc(F)cc3)cc1)C2,"inconclusive: 14.6 µM [inhibitor, single point]",–
N#Cc1ccc(C(=O)Nc2cccc(NC(=O)c3ccco3)c2)c(F)c1,"inconclusive: 13 µM [inhibitor, partial curve]",–
CC(=O)N1CCc2cc(NC(=O)C3(C)CCN3Cc3ccccc3Cl)ccc21 (centres undefined),"inconclusive: 29.1 µM [inhibitor, single point]",–
CCCCNC(=O)N1CCN(c2ccnc3cc(Cl)ccc23)CC1,active: 13 µM,–
CCOC(=O)c1nnn(CC(=O)N2N=C(c3ccc(Cl)cc3)CC2c2ccc(OC)cc2)c1C(=O)OCC (centres undefined),"inconclusive: 20.6 µM [inhibitor, single point]",–
CCCS(=O)(=O)N1CC(=O)N(c2ccccc2C)C(C)(C(=O)NC2CCCCC2)C1 (centres undefined),–,inactive: -0.69%
Cc1ccc(-c2csc(Cc3nc(-c4ccc5c(c4)CCC(=O)N5)cs3)n2)cc1,"inconclusive: 18.4 µM [inhibitor, single point]",–
Cc1cc(C)cc(C(=O)NC(=S)Nc2ccc3c(c2)OCCO3)c1,"inconclusive: 20.6 µM [inhibitor, single point]",–
Cc1ccc(C(=O)Nc2nccs2)cc1S(=O)(=O)N1CCCCC1,"inconclusive: 32.6 µM [inhibitor, single point]",–
CN(C)Cc1cc(C(C)(C)C)cc(C(C)(C)C)c1O,–,inactive: 7.19%
CC(C)CNC(=O)c1cccc(NC(=O)CCc2ccccc2)c1,–,inactive: -6.06%
c1ccc(C(Nc2cccnc2)c2ccccc2)cc1,"inconclusive: 20.6 µM [inhibitor, partial curve]",–
CN(C(=O)c1ccc(NC(=O)Cc2ccc(NC(=O)C3CCN(C(=O)c4ccccc4)CC3)cc2)cc1)C1CCCC1,"inconclusive: 29.1 µM [inhibitor, single point]",–
O=C(NCC(=O)N1CCN(C(=O)c2ccccc2)CC1)c1ccc(Cl)cc1Cl,–,inactive: -5.38%
COc1ccc(Nc2cc(C(=O)NCc3ccccc3)c3ccccc3n2)cc1,–,inactive: -26.3%
COc1ccc(/C=N/Nc2snc(SC)c2C#N)cc1OC,"inconclusive: 16.4 µM [inhibitor, single point]",–
CCC1CN(C(=O)N2CCC(C(=O)NCc3ccc(C)o3)CC2)c2ccccc2O1 (centres undefined),"inconclusive: 29.1 µM [inhibitor, single point] and inconclusive: 16.4 µM [inhibitor, single point]",–

Compound,Potency,"activity change, negative = growth inhibition"
Cc1cccc(C(=O)NCCCNC(=O)c2cccc(C)c2)c1,–,inactive: -10.1%
C=CCn1c(SCC(=O)NCC2CCCO2)nc2scc(-c3ccc(OC)cc3)c2c1=O (centres undefined),"inconclusive: 18.4 µM [inhibitor, single point]",–
CC(c1nnnn1C(C)(C)C)N(Cc1cccnc1)Cc1ccccc1Cl (centres undefined),"inconclusive: 20.6 µM [inhibitor, single point]",–
Cc1csc(N/N=C/c2ccc([N+](=O)[O-])cc2)n1,"inconclusive: 25.9 µM [inhibitor, single point]",–
Cc1noc(/C=C/N(C)C)c1S(=O)(=O)N1CCCC(C(=O)NCCC2=CCCCC2)C1 (centres undefined),active: 16.4 µM,–
C=CCN(CC=C)C(=S)NC(=O)c1ccc(OC)c(Br)c1,active: 5.8 µM,–
COc1ccc(NS(=O)(=O)c2cccc(Cl)c2Cl)cc1S(=O)(=O)N1CCCCC1,"inconclusive: 29.1 µM [inhibitor, single point]",–
Cc1cccc(C)c1OCCNC(=O)c1ccc2ccccc2n1,active: 16.4 µM,–
Cn1ccc2c(OCC(=O)Nc3ccc([N+](=O)[O-])cc3)cccc2c1=O,"inconclusive: 4.11 µM [inhibitor, partial curve]",–
COc1ccc(CC(=O)Nc2nc(C(C)(C)C)cs2)cc1,–,inactive: -29.4%
O=Cc1cc2c3c(c1)CCCN3CCC2,"inconclusive: 20 µM [inhibitor, single point]",–
O=C(CS(=O)(=O)c1ccccc1)N(CCCN1CCOCC1)c1nc2c(F)cccc2s1,–,inactive: -2.63%
Cc1[nH]c2ccccc2c1CN1CCN(c2ccccn2)CC1,active: 5.17 µM,–
O=C(CSc1ccc(-c2ccc(F)cc2)nn1)Nc1ccc2c(c1)OCCO2,–,inactive: -27.9%
CSc1ccc(CNC(=O)CN2C(=O)C3CCCCN3c3ccc(C(=O)N4CCCC4)cc32)cc1 (centres undefined),"inconclusive: 32.6 µM [inhibitor, single point]",–
Oc1c(C(Nc2nc3ccccc3s2)c2ccco2)ccc2cccnc12 (centres undefined),active: 5.17 µM,–
Cc1cnn(C(=S)NCCc2ccccc2)c1,"inconclusive: 29.1 µM [inhibitor, single point]",–
COc1ccc(-c2csc(Nc3cc(C)ccn3)n2)cc1C,"inconclusive: 29.1 µM [inhibitor, single point]",–
Cc1nc(C)c(CCNC(=O)c2cccc(Cl)c2)s1,"inconclusive: 9.2 µM [inhibitor, partial curve]",–
CCOC(=O)c1sc(NC(=O)CCCn2nc([N+](=O)[O-])cc2C)c(C(=O)OCC)c1C,"inconclusive: 25.9 µM [inhibitor, single point]",–
CCOC(=O)C1CCN(C(=O)c2ccc3c(c2)sc2nc(-c4ccc(C)cc4)cn23)CC1,"inconclusive: 3.66 µM [inhibitor, partial curve]",–
CC(C(=O)N1CCc2ccccc21)N1CCN(c2cccc(C(F)(F)F)c2)CC1 (centres undefined),"inconclusive: 18.4 µM [inhibitor, single point]",–
